This passage reports binding signal (log2 normalized intensity) results from publication PMC10726135.

This is one part of the list. At the low end of the ranking the order means little. The protein was read in a cell extract, so binding may be indirect.

The target in this assay is T1, HNF4alpha2 (COS-7 nuclear extract) (UniProt P41235).
T1 sequence: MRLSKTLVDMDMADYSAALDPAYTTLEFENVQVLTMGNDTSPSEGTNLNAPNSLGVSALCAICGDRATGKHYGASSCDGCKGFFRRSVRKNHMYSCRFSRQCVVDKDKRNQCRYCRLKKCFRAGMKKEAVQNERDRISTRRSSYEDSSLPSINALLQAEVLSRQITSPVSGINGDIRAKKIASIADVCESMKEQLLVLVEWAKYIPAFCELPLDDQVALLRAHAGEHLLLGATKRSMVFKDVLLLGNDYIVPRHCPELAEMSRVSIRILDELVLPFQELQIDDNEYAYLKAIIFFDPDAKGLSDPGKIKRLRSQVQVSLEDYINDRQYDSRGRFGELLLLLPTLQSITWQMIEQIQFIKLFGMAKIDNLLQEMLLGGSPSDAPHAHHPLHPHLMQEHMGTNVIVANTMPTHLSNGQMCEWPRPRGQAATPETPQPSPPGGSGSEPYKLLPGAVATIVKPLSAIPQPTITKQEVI
Put plainly: protein-binding microarray. Conditions: COS-7 nuclear extract on double-stranded Agilent 4x180k PBM; binding buffer, salt, pH and temperature not given; high values mean tight binding; double strand, one strand shown; sequences stand for … in …GCCTAGGGAGATTAGAGTATCGGTCGA
CTTTCCCTCCACCAAGTTTCCCACACTCAG: the binding signal (log2 normalized intensity) amounted to 1.77.

As to GTGCTTCTGGGGTATAAAGGTCAGGGATAG, the binding signal (log2 normalized intensity) was 3.72. Turning to TGGTGTTAAATCCTATCCTAGGGTTAAAGT, the binding signal (log2 normalized intensity) was determined as 2.42. The same measure for CTCATGAAGATTCTTTGGTTGGGAATAACA: 1.05; for CAGCAGGGTCTTTTTGACCTGTATCTTGTG: 2.86; for ATCAAGTCCGAACTCACTACAAACGCCTCT: -1.15. The same measure for AATTCCAGGGCTGGGTCCAGGAATGTGCTA: -1.09; for AACCCAGGCAATGACTCCAAAGTTCAAACT: 3.35; for CCATTTCCCATCCCCAGAGCCCCCTTGATG: 4.82. With AAGTGGCAATAAACTCCGTTATCACTCCTG the figure was -0.915; with CAGAACAGGCTGTTTTCCTATAGATTTGTT, 0.233. In the case of AGAGAGCAGGAGCCACCTGTCACTCAATGC, the binding signal (log2 normalized intensity) was -1.23. With TGTTTCCACTCCAGCCTCTCCACCAGGGGA the figure was -1.06; with CTGTGAAAATTGGTACTGGACATGGTCTAA, 1.42; with AGTCAAAGGTCCCCACCACAAAGGCCAGAG, 2.72. Take CATAAAGGACTTTCAACCCTGTGATGACCC: the binding signal (log2 normalized intensity) worked out at 4.21.

For GAGTGGGATGGCCATTGTTCATACTGCAGC, the binding signal (log2 normalized intensity) is -0.845. With CACAGTATGTTAATGGCAGAATCAAAGGTC the figure was 4.36; with CAACACACCTGTGGGTAATTAACTCCCCCT, 3.09; with GGGTGGTTCATTTGCACTTGTTTTTTCAGG, 1.48. The same measure for GCGGGGAAAAGGGAGTAAAGGTCACGCAGG: 3.72; for GTTCTGTGGAATTTGTGCTTATTTCCCATC: 1.05; for TAACTGTGCTTCTGGGGTATAAAGGTCAGG: 4.92. The same measure for GGGTCCTGGCAGCACCTGAAGAATTTGGAC: 1.23.

For GGCTCCCAGTGGCCCCTGAGCACTGTCTCA, the binding signal (log2 normalized intensity) was -1.15.

In the case of GCTGTGATGAGGCCAGCAGGGTGCCCCCTC, the binding signal (log2 normalized intensity) was 3.33. With GCATACGCTAGCTTTCTGGTCTTTGTTCTT the figure was 1.88; with ATCTCTTTGACACAAAGGGAGGCCTAGACA, -1.18. Regarding CTCTCTGTATTCCCTCTCTTCAGAATGGCC, the binding signal (log2 normalized intensity) amounted to 1.63. With CCTCTTTGAGTCTGGTGTTCTCTTGGCCAA the figure was 1.75; with TTTAAAAACTTATCTTGTGACCTTTGACTC, 8.33; with GAGCACTTTTGGTATGCAAGGCATGGTGCT, -0.975. The same measure for CAGCTGCGCGGCCTCCCCAGAGGCTGGTCA: -0.994. With CCACAGGTCAATCCAGGTTGCTGCCTAGTT the figure was -1.05; with TAAAGGGGATTTTCTCAGCTCTCCTCTGCC, -1.06; with TGTACACAGTTCAAAGGGCAGACAGGAACA, 3.1. Turning to CATTTCTGTATCCCTGTTATCTGGCAGATA, the binding signal (log2 normalized intensity) amounted to 0.925. Regarding GACTTCAAAGGCATTTCTGGACTTGGATCA, the binding signal (log2 normalized intensity) was found to be 3.31. With GGGAGTAGGGACAGCTAGTCTAGACTTTGC the figure was 3.32; with TCAGGAATCGCATTGCAAAATCCATCTAAA, -1.1. The same measure for CAGGTGTAAAGTCTGGCATACAGGGTCCAA: 2.87; for GTTAAAGTCCACATTCTTTAGCATATTACA: 0.789. The same measure for ATGGGCAGTCCCTATAGCCTCACTTGCTGA: -1.12; for TGTCCAAGGGTCACTCGACATTCATCATGA: 1.77; for GGCACAGGAACCTGTTTTACAGGACATAGT: -1.27. TACTAATCCTCTTCTGTCCTCCTGTGGCCA: the binding signal (log2 normalized intensity) is 0.558.

With GGCTCAGGAGAAGGGCCCATGGGCTTCAGG, the binding signal (log2 normalized intensity) was -1.06. The same measure for GTGAGAACAGAGTCTCCGAGGAACCCAGAC: -1.16; for GAGCCTAGGAGTTCAATGCTTCAGTGAGCC: -1.07.

For the sequence TAACCCATCTGGGGAAAGTGCAAGGGCCCA, the binding signal (log2 normalized intensity) is -1.11. With TTTCAACTGCAGGGGGGTGGGCACCCCTGC the figure was -1.25.

On to AATTACCATTCTTGAGGACAGGCCAAATCC, for which the binding signal (log2 normalized intensity) is 0.0816. With TATGTGGTGGGTGTGGTGATGGCAGGAGTC, the binding signal (log2 normalized intensity) was determined as 1.39. With GACCTCTGCCCTACTGTATATCCTGACACA the figure was 2.33. AGACATTGGCTAAATCATGGGGAGCATCTA: the binding signal (log2 normalized intensity) was -0.871.

As to GCTGCAGGAGAGATGGTCAGATTTTATTTA, the binding signal (log2 normalized intensity) was -0.201. With AACTTTGAAACAAGCCCATCTTCCAGAAAA the figure was -1.05; with TGGCAAATATCAGCATGGTATGTGGCTTGC, 0.594. Turning to CAGTATAAACAACACAGAACTAGCCAGACC, the binding signal (log2 normalized intensity) is -1.16. The same measure for AATTGCTACTTCCGGCGTCGATTAGCTGGG: -0.0901; for CTCATGCTAAAAGTTGAATTCTTGACTTTG: 0.255. With ATATCTTTGTCTCAGGAACTTTGTTTGTGT the figure was 2.49; with TAACCCCAGTTTAGCAATTTGCTCTCTGCT, -0.945. The same measure for AGCTATTGCTCTGCATGGATTAGCCAGCTA: -1.21; for AAGTGGAGATTTCAGCCGCTTTGAGGTCAA: 1.57. For the sequence CAGCACTGGGTGGGGATAAGAAAAGATCAA, the binding signal (log2 normalized intensity) is -1.1. Regarding TGCACAACGACCCTTGCTCTGTTTTCTGAC, the binding signal (log2 normalized intensity) was 1.89.

Turning to TTGTTCCATGCCACAGAATCGCCCCACCCT, the binding signal (log2 normalized intensity) amounted to 4.29.

As to TTCCTGCATTAACATCAACATGGACTTTGA, the binding signal (log2 normalized intensity) is 8.62.

CTGTAACACAGTTGCACTCACTAGCATTAG: the binding signal (log2 normalized intensity) is -0.831. TTCAAGGTCCAGCCTACCCACCCACACCTC: the binding signal (log2 normalized intensity) worked out at 3.33.

As for CCCCCACCCTGTGTCAGCATCTAAACCTCT, the binding signal (log2 normalized intensity) is 2.29.
